This note sets out measurements from patent publication US20080008771A1, “Nitric Oxide Dioxygenase Inhibitors” (priority 2004, published 2008).

What all share (experiment): biochemical
In experiment [1] the target is S. cerevisiae flavohemoglobin (Saccharomyces cerevisiae, UniProt P39676).
The target in experiment [2] is E. coli flavohemoglobin (NOD) (Escherichia coli, UniProt P24232).
Experiment [3] addresses A. eutrophus flavohemoglobin (Cupriavidus necator, UniProt P39662). Conditions: Apparent Ki.

A. eutrophus flavohemoglobin, sequence (P39662 whole entry): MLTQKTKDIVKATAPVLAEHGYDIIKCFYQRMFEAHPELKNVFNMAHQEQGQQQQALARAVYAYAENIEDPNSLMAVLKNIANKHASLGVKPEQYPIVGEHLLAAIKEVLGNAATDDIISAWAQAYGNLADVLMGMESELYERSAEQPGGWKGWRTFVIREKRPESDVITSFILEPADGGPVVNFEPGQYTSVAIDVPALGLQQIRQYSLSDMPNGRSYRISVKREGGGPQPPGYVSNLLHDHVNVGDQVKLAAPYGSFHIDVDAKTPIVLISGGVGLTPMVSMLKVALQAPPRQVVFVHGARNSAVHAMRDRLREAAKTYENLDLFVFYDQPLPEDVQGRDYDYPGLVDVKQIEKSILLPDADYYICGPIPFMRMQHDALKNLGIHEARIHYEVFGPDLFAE
E. coli flavohemoglobin (NOD), sequence (P24232 whole entry): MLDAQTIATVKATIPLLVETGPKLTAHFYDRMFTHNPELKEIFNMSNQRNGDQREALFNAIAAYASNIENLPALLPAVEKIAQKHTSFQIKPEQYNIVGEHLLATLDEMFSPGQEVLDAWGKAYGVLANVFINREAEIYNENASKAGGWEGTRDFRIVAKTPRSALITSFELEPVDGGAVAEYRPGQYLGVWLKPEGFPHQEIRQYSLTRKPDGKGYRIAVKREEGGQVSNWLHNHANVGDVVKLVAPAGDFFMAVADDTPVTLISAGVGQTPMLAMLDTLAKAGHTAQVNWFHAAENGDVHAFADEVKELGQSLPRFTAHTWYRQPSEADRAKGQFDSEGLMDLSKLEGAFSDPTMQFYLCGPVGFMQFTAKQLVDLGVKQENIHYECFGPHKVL
S. cerevisiae flavohemoglobin, sequence (P39676 whole entry): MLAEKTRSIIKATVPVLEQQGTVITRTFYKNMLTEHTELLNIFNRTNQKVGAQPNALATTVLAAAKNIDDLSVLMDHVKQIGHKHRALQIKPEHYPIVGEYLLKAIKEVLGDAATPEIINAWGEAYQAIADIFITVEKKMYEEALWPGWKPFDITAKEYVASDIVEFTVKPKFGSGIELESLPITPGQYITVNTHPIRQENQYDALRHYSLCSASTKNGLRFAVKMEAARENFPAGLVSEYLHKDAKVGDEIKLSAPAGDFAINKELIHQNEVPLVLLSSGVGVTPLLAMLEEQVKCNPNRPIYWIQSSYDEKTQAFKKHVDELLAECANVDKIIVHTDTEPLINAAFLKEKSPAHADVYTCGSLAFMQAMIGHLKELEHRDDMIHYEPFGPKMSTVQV

Turning to `Clc1ccccc1C(c1ccccc1)(c1ccccc1)n1ccnc1` [clotrimazole], the Ki in experiment [1] is 50000 nM; in experiment [2], 1300 nM; in experiment [3] (first (major) phase), 200 nM; in experiment [3] (second (minor) phase), 5000 nM.
For `Clc1ccc(COC(Cn2ccnc2)c2ccc(Cl)cc2Cl)cc1` (stereo not drawn) [econazole] the same measures were 30000 nM, 550 nM, 100 nM and 2000 nM.
Consider `Clc1ccc(COC(Cn2ccnc2)c2ccc(Cl)cc2Cl)c(Cl)c1` (stereo not drawn) [miconazole], for which the Ki in experiment [1] was determined as 12000 nM; in experiment [2], 80 nM; in experiment [3] (first (major) phase) it was 5 nM; in experiment [3] (second (minor) phase) it was 650 nM.
